Data on five molecules can be found in article PMC11911400, “Mechanism of ASF1 engagement by CDAN1” (Nature Communications, 2025).

The chains behind the UniProt entries cited, without tags or fusion partners. Where a name states a change or a piece, a line headed by the entry shows the natural chain unless it says otherwise.
UniProt Q9Y294: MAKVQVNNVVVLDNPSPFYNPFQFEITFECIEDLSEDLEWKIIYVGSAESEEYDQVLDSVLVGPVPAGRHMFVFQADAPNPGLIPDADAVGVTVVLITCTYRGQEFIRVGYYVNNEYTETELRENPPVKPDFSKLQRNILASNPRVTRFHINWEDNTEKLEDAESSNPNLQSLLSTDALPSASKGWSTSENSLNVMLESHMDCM
UniProt Q9NVP2: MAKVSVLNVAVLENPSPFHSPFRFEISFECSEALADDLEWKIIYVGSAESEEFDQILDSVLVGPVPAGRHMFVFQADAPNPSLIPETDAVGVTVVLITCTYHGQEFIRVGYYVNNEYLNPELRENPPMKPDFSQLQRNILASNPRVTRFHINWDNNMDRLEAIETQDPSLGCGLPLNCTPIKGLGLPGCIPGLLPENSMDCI

Substitutions are numbered along the chain they refer to. Numbers in names are those of the source. Results are given in words; binding and its absence hold for the method and conditions named. In cells and extracts the contact can be indirect. Some results given as binding are weak or reduced against the parent protein; the word gives no strength. For part of these data: Tags and fused reporters may be left off the sequences shown.

For experiment [1], the target named is T1, HMHA1* BDA1* ST-CDAN1 (human) (UniProt Q8IWY9).
T1 sequence: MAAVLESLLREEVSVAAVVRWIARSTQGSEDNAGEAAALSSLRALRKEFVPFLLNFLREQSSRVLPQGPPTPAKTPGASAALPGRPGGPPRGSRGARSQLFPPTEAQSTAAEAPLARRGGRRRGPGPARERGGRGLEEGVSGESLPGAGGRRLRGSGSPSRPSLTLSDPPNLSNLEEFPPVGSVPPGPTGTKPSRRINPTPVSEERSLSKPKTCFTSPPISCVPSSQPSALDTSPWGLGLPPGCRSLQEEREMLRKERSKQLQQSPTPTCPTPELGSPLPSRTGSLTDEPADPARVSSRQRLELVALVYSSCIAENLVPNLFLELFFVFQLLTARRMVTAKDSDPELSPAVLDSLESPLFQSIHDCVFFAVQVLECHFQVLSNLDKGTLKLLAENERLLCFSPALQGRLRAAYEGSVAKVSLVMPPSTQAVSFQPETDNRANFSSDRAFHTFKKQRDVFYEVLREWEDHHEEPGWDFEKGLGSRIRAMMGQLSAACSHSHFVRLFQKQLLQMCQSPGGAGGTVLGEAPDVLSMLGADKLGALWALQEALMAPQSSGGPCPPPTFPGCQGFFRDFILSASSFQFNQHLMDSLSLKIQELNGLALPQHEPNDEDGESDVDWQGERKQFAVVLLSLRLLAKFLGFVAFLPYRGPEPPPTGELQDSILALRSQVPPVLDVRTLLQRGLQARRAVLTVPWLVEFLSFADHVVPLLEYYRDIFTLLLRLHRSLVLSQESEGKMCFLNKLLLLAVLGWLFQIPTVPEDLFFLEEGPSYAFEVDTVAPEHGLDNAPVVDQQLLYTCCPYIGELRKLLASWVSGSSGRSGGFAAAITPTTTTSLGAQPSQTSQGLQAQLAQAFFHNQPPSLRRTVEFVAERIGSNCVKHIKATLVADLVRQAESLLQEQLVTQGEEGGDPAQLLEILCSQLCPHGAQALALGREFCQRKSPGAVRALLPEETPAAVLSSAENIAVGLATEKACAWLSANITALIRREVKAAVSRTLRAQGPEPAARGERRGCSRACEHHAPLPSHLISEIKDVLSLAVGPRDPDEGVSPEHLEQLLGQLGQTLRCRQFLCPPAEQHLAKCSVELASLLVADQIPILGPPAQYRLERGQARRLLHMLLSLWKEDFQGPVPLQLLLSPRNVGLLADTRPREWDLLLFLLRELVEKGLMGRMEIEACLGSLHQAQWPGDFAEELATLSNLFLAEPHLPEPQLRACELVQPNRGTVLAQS
In words: pull-down; Strep-Tactin pulldown of ST-CDAN1 variants co-transfected with FLAG-tagged ASF1A or ASF1B variants in Flp-In 293 T-REx cells; immunoblotting; IP buffer with 1% Triton X-100, 1 hr at 4 °C. (Immunoblotting shows a protein as a band on a membrane.)

The target in experiment [2] is T2, Strep-CDAN1 HMHA1* (R541A/R544A/R548A) (human) (UniProt Q8IWY9).
T2 sequence: T1 sequence with A824M, A825R, A826K
The experiment is described as above.

Experiment [3] addresses T3, FLAG-tagged CDIN1 (F-CDIN1) (UniProt Q9Y2V0).
T3 sequence: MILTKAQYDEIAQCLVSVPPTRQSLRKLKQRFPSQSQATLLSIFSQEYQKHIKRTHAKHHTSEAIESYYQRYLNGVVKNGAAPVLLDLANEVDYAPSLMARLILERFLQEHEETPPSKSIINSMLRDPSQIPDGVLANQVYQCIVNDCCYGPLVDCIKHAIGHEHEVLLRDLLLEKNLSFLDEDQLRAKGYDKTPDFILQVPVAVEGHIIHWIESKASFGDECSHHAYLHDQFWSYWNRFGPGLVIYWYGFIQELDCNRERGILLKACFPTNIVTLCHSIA
In words: co-IP; anti-FLAG IP (first step of the tandem purification) from lysates of transiently transfected Expi293 cells; IP buffer with 1% Triton X-100, 4 °C; elution with 3xFLAG peptide; immunoblotting.

In experiment [4] the target is FLAG-tagged ASF1A (F-ASF1A) (human) (UniProt Q9Y294). Described as above.
Experiment [5] addresses T4, endogenous CDIN1 with a C-terminal HaloTag-FLAG (HF) tag (human (endogenous in Flp-In 293 T-REx)) (UniProt Q9Y2V0).
T4 sequence: T3 sequence
In words: co-IP; anti-FLAG M2 agarose IP of endogenously HaloTag-FLAG tagged CDAN1 or CDIN1 from Flp-In 293 T-REx lysates; IP buffer 50 mM HEPES pH 7.5, 100 mM KOAc, 2.5 Mg(OAc)2, 1% Triton X-100, 1 mM DTT; immunoblotting.

For “FLAG-ASF1B QN (S5Q/L7N) (from UniProt Q9NVP2 1-202)”, the binding result in experiment [1] was “no binding”; in experiment [2] it was “binds”. For “FLAG-ASF1B RQ (R23Q) (from UniProt Q9NVP2 1-202)”, the binding result in experiment [2] is listed as “no binding”. For “HA-tagged ASF1A (from UniProt Q9Y294 1-204)”, in experiment [3], the binding entry is “binds”.

As to “endogenous ASF1A (from UniProt Q9Y294 1-204) (other; other documents disagree on this pair)”, in experiment [4], the binding result is listed as “binds”.

B1: Strep-tagged CDAN1 (ST-CDAN1), wildtype (natural protein, human)
chain: T1 sequence with A541R, A544R, A548R, A824M, A825R, A826K
notes: Codanin-1 (CDAN1), human, 1227 residues; cDNA from Horizon Discovery/Dharmacon, its point mutation S421F corrected; same construct used in Expi293 and in Flp-In 293 T-REx cells; dimer by SEC-MALS and cryo-EM; also called Strep-CDAN1; WT CDAN1; source: Expi293, transiently transfected, in lysate and purified in complexes (anti-FLAG, Strep-Tactin); Flp-In 293 T-REx, transiently transfected, in …
As to B1, the binding result in experiment [5] was “binds”.
